Measured values as given in article PMC4336329 (PLoS ONE, 2015).
The campaign covered roughly 310,000 compounds. About 14,000 (4.5%) showed an effect of 50% or more. The effect is printed as a negative number. Some of the results follow.

These compounds were tested against human ether-à-go-go-related gene (hERG) potassium channel (human, UniProt Q12809) (assay: primary screen, population patch clamp on CHO cells stably expressing hERG).
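Note: peak tail current of the secondary pulse compared with the same well before compound.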

human ether-à-go-go-related gene (hERG) potassium channel, sequence (Q12809 whole entry, looked up): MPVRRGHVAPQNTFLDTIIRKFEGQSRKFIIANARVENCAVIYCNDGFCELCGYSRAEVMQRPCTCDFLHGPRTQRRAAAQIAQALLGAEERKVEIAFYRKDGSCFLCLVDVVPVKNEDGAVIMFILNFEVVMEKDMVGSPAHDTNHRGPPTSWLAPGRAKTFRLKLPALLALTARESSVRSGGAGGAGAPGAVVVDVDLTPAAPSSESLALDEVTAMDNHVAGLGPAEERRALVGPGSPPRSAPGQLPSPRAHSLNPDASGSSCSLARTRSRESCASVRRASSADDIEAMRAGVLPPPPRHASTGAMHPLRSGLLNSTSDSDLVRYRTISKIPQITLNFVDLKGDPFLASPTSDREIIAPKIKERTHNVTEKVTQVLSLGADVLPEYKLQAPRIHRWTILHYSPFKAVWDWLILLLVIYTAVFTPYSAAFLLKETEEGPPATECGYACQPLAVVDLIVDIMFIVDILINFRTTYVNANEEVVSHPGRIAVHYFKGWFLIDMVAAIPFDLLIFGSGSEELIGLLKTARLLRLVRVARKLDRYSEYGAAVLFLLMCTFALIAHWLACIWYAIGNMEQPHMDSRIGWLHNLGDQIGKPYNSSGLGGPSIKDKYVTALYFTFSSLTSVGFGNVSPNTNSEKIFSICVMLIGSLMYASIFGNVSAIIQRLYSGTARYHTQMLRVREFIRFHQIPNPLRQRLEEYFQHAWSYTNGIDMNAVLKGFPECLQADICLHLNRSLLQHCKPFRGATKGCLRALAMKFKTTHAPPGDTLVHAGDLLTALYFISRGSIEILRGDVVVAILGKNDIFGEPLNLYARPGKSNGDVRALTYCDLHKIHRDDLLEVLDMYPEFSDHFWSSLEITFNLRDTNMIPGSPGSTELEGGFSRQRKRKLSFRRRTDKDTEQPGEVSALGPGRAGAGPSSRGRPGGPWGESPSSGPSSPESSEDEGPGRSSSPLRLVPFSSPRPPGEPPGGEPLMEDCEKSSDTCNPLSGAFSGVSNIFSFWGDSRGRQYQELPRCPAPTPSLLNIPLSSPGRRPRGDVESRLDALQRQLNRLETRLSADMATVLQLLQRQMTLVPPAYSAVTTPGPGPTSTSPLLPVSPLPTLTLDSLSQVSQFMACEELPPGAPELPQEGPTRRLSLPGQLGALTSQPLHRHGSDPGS

Row | Structure (SMILES) | hERG current change (%, negative = inhibition) at 10uM
1 | COc1c(C)cccc1C(=O)Nc1ccc(N2CCN(C(=O)c3ccccc3C)CC2)cc1 | -4.14%
2 | COc1ccccc1C1N(c2ccc(F)cc2)C(=O)C2CCCN21 (centres unmarked) | 10%
3 | COc1ccc(OC)c(NC=C2C(=O)OC3(CCCCC3)OC2=O)c1 | -25.8%
4 | CC1CN(C)CCC1OC(=O)c1ccccc1.Cl (centres unmarked) | 3.85%
5 | O=c1[nH]c(/C(Cl)=C/c2cccc(F)c2)nc2cc(C(F)(F)F)ccc12 | 8.55%
6 | Cc1cc(C)c(N(CC(=O)NC(C)(C)C)C(=O)CNC(=O)c2cccs2)c(C)c1 | 15.7%
7 | O=c1c2cccc3c2c(nn1CN1CCOCC1)-c1ccccc1-3 | -11.5%
8 | Cl.O=[N+]([O-])c1ccc(COc2cccc(CNc3ccc(F)cc3)c2)cc1 | -15.6%
9 | CN(CC(=O)NCCc1ccc(S(N)(=O)=O)cc1)S(=O)(=O)/C=C/c1ccccc1 | 19.2%
10 | COc1ccccc1NC(=O)Nn1cnnc1 | 10.8%
11 | N#Cc1ccc(-c2cccnc2)nc1SCC(N)=O | -3.07%
12 | O=C1C=C(c2ccc(-c3ccccc3)c(F)c2)C[C@@H](c2ccc(F)cc2)C1 | 9.36%
13 | CCOC(=O)c1cc(C(=O)NN)c(=O)[nH]c1C | 15.7%
14 | O=C(O)c1cccnc1SC1CC(=O)N(Cc2ccccc2)C1=O (centres unmarked) | -3.87%
15 | Cc1ccc(NC(=S)N2CCN(c3ncccn3)CC2)c(C)c1 | -3.74%
16 | O=S(=O)(c1ccccc1)N1CCN(c2cccc(Cl)c2)CC1 | 8.67%
17 | Cc1oc2c(CN3CCOCC3)c(O)ccc2c(=O)c1-c1ccc(Cl)cc1 | -19.1%
18 | Cc1ccccc1C(=O)NCc1nnc(SCC(=O)N2c3ccccc3Sc3ccccc32)n1C | -4.41%
19 | O=C(Nc1ccc(O)c2c(=O)cc(-c3cccc(Cl)c3)oc12)c1ccc(F)cc1 | 8.91%

Row | Structure (SMILES) | hERG current change (%, negative = inhibition) at 10uM
20 | CCOC(=O)c1c(N)sc2c1CCS(=O)(=O)C2 | 9.07%
21 | CCC(OC(=O)C(CC(C)C)NC(=O)c1ccccc1)C(=O)Nc1nnc(C)s1 (centres unmarked) | 3.85%
22 | N#CC1(c2ccc(NC(=O)c3ccccc3F)cc2)CCCC1 | -7.6%
23 | COc1ccc(NC(=O)c2ccc3c(=O)n(CC4CCCO4)c(=S)[nH]c3c2)c(OC)c1 (centres unmarked) | 6.84%
24 | CC(C)Oc1ccc(C(=O)NC2CCN(Cc3ccccc3)CC2)cc1 | -60.8%
25 | Cc1cccc(NC(=O)c2cc(Cl)ccc2[N+](=O)[O-])c1 | -24.9%
26 | CC1CCc2c(sc(NC(=O)C(=O)NCc3ccco3)c2C#N)C1 (centres unmarked) | -66.3%
27 | c1ccc(CNc2nc(-c3ccccc3)nc3ccccc23)cc1 | 4.15%
28 | O=C(CCN1C(=O)/C(=C\c2cccs2)SC1=S)Nc1ccc(C(=O)O)cc1 | 11.5%
29 | CCOC(=O)Cc1csc(NC(=O)CSc2nc(=O)[nH]c3c2CCC3)n1 | 12.1%
30 | Nc1nc(=S)c2ncn([C@@H]3O[C@H](CO)[C@@H](O)[C@H]3O)c2[nH]1 | 17.2%
31 | CCC(CC)C(=O)NCCc1cc2cc(C)c(C)cc2[nH]c1=O | 21.1%
32 | Cc1ccc(N(C(=O)c2csnn2)C(C(=O)NC(C)(C)C)c2cccnc2)cc1C (centres unmarked) | 1.24%
33 | Cc1ccc(C(=O)C(C)OC(=O)CN2C(=O)NC3(CCCC3)C2=O)cc1 (centres unmarked) | 8.95%
34 | COCCn1c(NC(=S)NC(=O)C23CC4CC(CC(C4)C2)C3)cc(=O)[nH]c1=O | -8.59%
35 | COc1ccc(CN2CCNC(=O)C2CC(=O)N(C)Cc2ccon2)cc1OC (centres unmarked) | -0.926%
36 | C=CCN(CC=C)C(=O)c1ccc2nc(Cc3ccc(OC)c(OC)c3)oc2c1 | 6.19%
37 | COc1cc2c(cc1OC)CN(C(=O)c1cccc(S(=O)(=O)N(C)C)c1)CC2 | 6.05%
38 | Cc1ccc(C)c(C(C)NC(=S)NC2CCCCC2)c1 (centres unmarked) | 0.228%

Row | Structure (SMILES) | hERG current change (%, negative = inhibition) at 10uM
39 | COc1ccc(-c2c(C#Cc3ccsc3)c3cc(-c4ccc5[nH]ccc5c4)ccc3n2C)cc1 | 24.1%
40 | Cc1ccc(NC(=O)CC2SC(=O)NC2=O)cc1 (centres unmarked) | 13.3%
41 | CCCOc1ccc(-c2nn(-c3ccccc3)cc2/C=C2\SC(N)=NC2=O)cc1C | 3.82%
42 | Cc1ccnc(NC(=O)Nc2ccc3c(c2)OCO3)c1 | 17.2%
43 | COc1ccc(NC(=O)CN(c2ccc([N+](=O)[O-])cc2)S(=O)(=O)c2ccccc2)cc1 | -10.3%
44 | COc1ccc(N2CCN(C(=O)COC(=O)CCS(=O)(=O)c3ccc(C)cc3)CC2)cc1 | -12.2%
45 | COC(=O)Cc1ccc(O)c(N)c1 | 9.82%
46 | COc1cc(Br)cc(/C=N/c2ncn[nH]2)c1O | 8.79%
47 | Cc1cccc(OCC(=O)Nc2nnc(S(=O)(=O)N3CCCCC3)s2)c1 | -8.5%
48 | COc1cccc(CNc2ccccn2)c1O | 14.9%
49 | CCOc1ccc(NC(=O)c2ccc(S(=O)(=O)N3CCOCC3)cc2)cc1 | 10.1%
50 | COc1cccc(-c2nc(CS(=O)(=O)CC(=O)NCC(C)c3ccccc3)c(C)o2)c1 (centres unmarked) | -40.3%
51 | COc1ccccc1C(=O)n1nc(-c2ccccc2)nc1N | 0.335%
52 | CCCCN1C(=O)C(O)(CC(=O)c2ccccc2OC)c2ccccc21 (centres unmarked) | -0.832%
53 | Cc1cc(NC2C3CC4CC(C3)CC2C4)n2nnnc2n1 (centres unmarked) | 5.05%
54 | CS(=O)(=O)c1nc(S(=O)(=O)c2ccc(Cl)cc2)c(N2CCC3(CC2)OCCO3)s1 | -59.3%
55 | CCOc1ccc(CNC(=O)CCc2cn(Cc3ccccc3)c3ccccc23)cc1 | -1.6%
56 | CC1CCN(C(=O)c2cc(Cl)ccc2NC(=O)c2ccco2)CC1 | 12%
